Assay results as given in the supplement of paper PMC6451100.
Some of the results follow. Read counts after selection give these values, which scatter widely.

biological target: T1, Drosophila AGO2 (FLAG-tagged, S2-R+ lysate) (UniProt Q9VUQ5); experiment: AGO2 loading enrichment factor (IP read count / input read count, not library-size normalised) (ratio); higher = more efficient loading into AGO2; settings: randomized region: 5' 5N of miR-317 loop
T1 sequence: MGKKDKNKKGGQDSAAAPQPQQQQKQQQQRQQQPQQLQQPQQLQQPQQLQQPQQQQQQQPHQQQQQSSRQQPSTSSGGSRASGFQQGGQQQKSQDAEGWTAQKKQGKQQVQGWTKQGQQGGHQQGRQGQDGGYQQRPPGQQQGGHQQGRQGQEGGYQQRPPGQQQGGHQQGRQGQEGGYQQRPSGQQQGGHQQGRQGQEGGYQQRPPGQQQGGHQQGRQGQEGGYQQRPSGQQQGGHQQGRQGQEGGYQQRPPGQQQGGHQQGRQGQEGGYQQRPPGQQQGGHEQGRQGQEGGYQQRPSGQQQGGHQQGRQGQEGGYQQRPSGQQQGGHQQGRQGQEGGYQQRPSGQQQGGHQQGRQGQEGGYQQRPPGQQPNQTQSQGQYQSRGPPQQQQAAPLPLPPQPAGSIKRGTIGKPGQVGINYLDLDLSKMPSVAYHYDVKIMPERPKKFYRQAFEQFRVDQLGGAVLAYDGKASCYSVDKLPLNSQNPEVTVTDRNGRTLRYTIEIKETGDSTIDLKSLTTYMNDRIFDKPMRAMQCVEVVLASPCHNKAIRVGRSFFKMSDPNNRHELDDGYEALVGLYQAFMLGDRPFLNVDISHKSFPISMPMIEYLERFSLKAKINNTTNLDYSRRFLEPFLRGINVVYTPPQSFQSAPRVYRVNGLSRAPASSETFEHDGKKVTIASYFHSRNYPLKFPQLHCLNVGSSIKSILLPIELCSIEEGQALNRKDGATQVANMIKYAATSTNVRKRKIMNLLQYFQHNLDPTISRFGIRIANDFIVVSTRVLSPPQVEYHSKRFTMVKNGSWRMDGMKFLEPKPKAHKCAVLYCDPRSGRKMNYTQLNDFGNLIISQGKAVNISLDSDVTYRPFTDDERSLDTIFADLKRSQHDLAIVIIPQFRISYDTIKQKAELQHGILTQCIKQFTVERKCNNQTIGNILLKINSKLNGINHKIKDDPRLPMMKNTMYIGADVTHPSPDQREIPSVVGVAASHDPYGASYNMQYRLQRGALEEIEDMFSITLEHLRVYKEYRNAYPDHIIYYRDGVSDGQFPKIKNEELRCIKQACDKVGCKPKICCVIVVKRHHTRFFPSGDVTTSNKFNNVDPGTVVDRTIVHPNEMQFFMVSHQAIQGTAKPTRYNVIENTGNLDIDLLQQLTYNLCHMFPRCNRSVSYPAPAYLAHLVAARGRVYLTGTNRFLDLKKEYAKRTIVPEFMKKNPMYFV
Description: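 HISSA: 5'-phosphorylated, 32P-labelled 20-nt ssRNA oligos (miR-317 loop, first 5 nt randomized, constant 3' part TGAAATGCAAGCAAG as printed in methods; DNA letters for RNA) incubated 1 h at 25°C in lysate of S2-R+ cells expressing FLAG-AGO2. FLAG-AGO2 was immunopurified and bound oligos were sequenced after splinted ligation. Enrichment factor = IP read count / input read count (raw counts, not library-size normalised); single library, no replicates.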
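Note: Per-sequence enrichment computed with FASTAptamer, counting only reads that carry the expected constant 3′ region.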

Sequence	AGO2 loading enrichment factor
GTCTGTGAAATGCAAGCAAG	0.293
TCCCGTGAAATGCAAGCAAG	0.819
CGTTTTGAAATGCAAGCAAG	0.29
CTATCTGAAATGCAAGCAAG	0.537
ATCCATGAAATGCAAGCAAG	0.314
CTCACTGAAATGCAAGCAAG	0.326
CTAGTTGAAATGCAAGCAAG	0.236
AAACGTGAAATGCAAGCAAG	0.33
GGACTTGAAATGCAAGCAAG	0.151
TACACTGAAATGCAAGCAAG	0.412
ATAGATGAAATGCAAGCAAG	0.428
ACGCCTGAAATGCAAGCAAG	0.251
CGGATTGAAATGCAAGCAAG	0.538
CTTGATGAAATGCAAGCAAG	0.0333
TAAGATGAAATGCAAGCAAG	0.39
ATACGTGAAATGCAAGCAAG	0.451
GAGACTGAAATGCAAGCAAG	0.458
TTAGTTGAAATGCAAGCAAG	0.46
CGCGATGAAATGCAAGCAAG	0.369
TGGGCTGAAATGCAAGCAAG	0.322
TGGCCTGAAATGCAAGCAAG	0.493
CAAAATGAAATGCAAGCAAG	0.359
ACGCGTGAAATGCAAGCAAG	0.345
TAGTTTGAAATGCAAGCAAG	0.122
CTTTATGAAATGCAAGCAAG	0.28

Sequence	AGO2 loading enrichment factor
GTTTGTGAAATGCAAGCAAG	0.0838
CTCGTTGAAATGCAAGCAAG	0.137
TGGAGTGAAATGCAAGCAAG	1.65
CGTTCTGAAATGCAAGCAAG	0.427
GGGACTGAAATGCAAGCAAG	2.24
TAGGATGAAATGCAAGCAAG	0.829
TATGCTGAAATGCAAGCAAG	0.115
TTCCATGAAATGCAAGCAAG	0.467
TTAGATGAAATGCAAGCAAG	0.428
TGCCGTGAAATGCAAGCAAG	0.256
CGCTCTGAAATGCAAGCAAG	0.4
TGACATGAAATGCAAGCAAG	0.399
TAGCGTGAAATGCAAGCAAG	0.318
AGCACTGAAATGCAAGCAAG	0.246
GGCCCTGAAATGCAAGCAAG	1.06
GGGTATGAAATGCAAGCAAG	1.24
GCACGTGAAATGCAAGCAAG	0.115
AATGCTGAAATGCAAGCAAG	0.0351
CGACCTGAAATGCAAGCAAG	0.44
CTAACTGAAATGCAAGCAAG	0.401
CGTGGTGAAATGCAAGCAAG	1.04
AGAGGTGAAATGCAAGCAAG	1.77
GTTCTTGAAATGCAAGCAAG	0.313
ATGGCTGAAATGCAAGCAAG	0.175
GTTGCTGAAATGCAAGCAAG	0.49

Sequence	AGO2 loading enrichment factor
TGTACTGAAATGCAAGCAAG	0.245
GTAGCTGAAATGCAAGCAAG	0.186
TGCTCTGAAATGCAAGCAAG	0.0919
GCTCGTGAAATGCAAGCAAG	0.0725
TGTAATGAAATGCAAGCAAG	0.361
GCTAGTGAAATGCAAGCAAG	0.0147
AGCGGTGAAATGCAAGCAAG	0.34
TCTATTGAAATGCAAGCAAG	0.462
AATTTTGAAATGCAAGCAAG	0.346
TCATATGAAATGCAAGCAAG	0.464
AGTCTTGAAATGCAAGCAAG	0.0682
TGGGATGAAATGCAAGCAAG	2.84
ACTAGTGAAATGCAAGCAAG	0.264
CGCTTTGAAATGCAAGCAAG	0.431
GCTGATGAAATGCAAGCAAG	0.107
AACTATGAAATGCAAGCAAG	0.378
TGCTTTGAAATGCAAGCAAG	0.101
CCGACTGAAATGCAAGCAAG	0.685
CATCATGAAATGCAAGCAAG	0.329
GAACGTGAAATGCAAGCAAG	0.385
AACAATGAAATGCAAGCAAG	0.381
TGCCATGAAATGCAAGCAAG	0.382
TTTGTTGAAATGCAAGCAAG	1.09
TTCACTGAAATGCAAGCAAG	0.362
TCCGATGAAATGCAAGCAAG	0.37

Sequence	AGO2 loading enrichment factor
ATTCATGAAATGCAAGCAAG	0.459
TGTCGTGAAATGCAAGCAAG	0.539
TTATGTGAAATGCAAGCAAG	0.508
GAAAATGAAATGCAAGCAAG	0.465
ATTTCTGAAATGCAAGCAAG	0.424
AACCGTGAAATGCAAGCAAG	0.313
TAAAATGAAATGCAAGCAAG	0.458
TGTCCTGAAATGCAAGCAAG	0.408
GTGTCTGAAATGCAAGCAAG	0.521
TATTTTGAAATGCAAGCAAG	0.455
CTCGGTGAAATGCAAGCAAG	0.674
CCTCGTGAAATGCAAGCAAG	0.297
GCTGTTGAAATGCAAGCAAG	0.0862
TAACCTGAAATGCAAGCAAG	0.476
GCGGATGAAATGCAAGCAAG	0.469
ACTTCTGAAATGCAAGCAAG	0.221
GGAATTGAAATGCAAGCAAG	0.542
AAAGATGAAATGCAAGCAAG	0.364
CGGGGTGAAATGCAAGCAAG	6.89
ACGAATGAAATGCAAGCAAG	0.492
CAGCCTGAAATGCAAGCAAG	0.231
CACTCTGAAATGCAAGCAAG	0.261
TTTCTTGAAATGCAAGCAAG	0.583
TAATGTGAAATGCAAGCAAG	0.271
